Numbering of substitutions follows the chain as printed; changes in the protein carry UniProt numbers. The list shows a part of the results.
T1: RBFOX1 RRM RbFoxmut (Fox-RRM*) (Homo sapiens, UniProt Q9NWB1 109-208, R118D;E147R;N151S;E152T)
T1 sequence: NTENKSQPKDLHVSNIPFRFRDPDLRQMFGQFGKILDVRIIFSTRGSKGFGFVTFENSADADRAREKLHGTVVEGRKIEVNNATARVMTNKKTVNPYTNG

B1: CUCCCAA (DNA:RNA)
RNA: GGGAGACCGGAAUUCAGAUUGUCCCUCCCAAUUAAAUCCCGUCGUAGCCACCA
DNA 1: CAATCTGAATTCCGGTCTCCC
DNA 2: TGGTGGCTACGACGGGATT
B2: GGAAAAU (DNA:RNA)
RNA: B1 RNA with C25G, U26G, C27A, C28A, C29A, A31U
DNA 1: CAATCTGAATTCCGGTCTCCC
DNA 2: TGGTGGCTACGACGGGATT
B3: AGCAUAA (DNA:RNA)
RNA: B1 RNA with C25A, U26G, C28A, C29U
DNA 1: CAATCTGAATTCCGGTCTCCC
DNA 2: TGGTGGCTACGACGGGATT
B4: GAUCGGA (DNA:RNA)
RNA: B1 RNA with C25G, U26A, C27U, C29G, A30G
DNA 1: CAATCTGAATTCCGGTCTCCC
DNA 2: TGGTGGCTACGACGGGATT
B5: UUUCAAC (DNA:RNA)
RNA: B1 RNA with C25U, C27U, C29A, A31C
DNA 1: CAATCTGAATTCCGGTCTCCC
DNA 2: TGGTGGCTACGACGGGATT
B6: AGAUUGU (DNA:RNA)
RNA: GGGAGACCGGAAUUCAGAUUGUCCAGAUUGUUUAAAUCCCGUCGUAGCCACCA
DNA 1: CAATCTGAATTCCGGTCTCCC
DNA 2: TGGTGGCTACGACGGGATT
B7: CUACCGU (DNA:RNA)
RNA: B1 RNA with C27A, A30G, A31U
DNA 1: CAATCTGAATTCCGGTCTCCC
DNA 2: TGGTGGCTACGACGGGATT
B8: AAUGUAA (DNA:RNA)
RNA: B6 RNA with G26A, A27U, U28G, G30A, U31A
DNA 1: CAATCTGAATTCCGGTCTCCC
DNA 2: TGGTGGCTACGACGGGATT
B9: CAGAAAA (DNA:RNA)
RNA: B1 RNA with U26A, C27G, C28A, C29A
DNA 1: CAATCTGAATTCCGGTCTCCC
DNA 2: TGGTGGCTACGACGGGATT
B10: GUGAUUG (DNA:RNA)
RNA: B6 RNA with A25G, G26U, A27G, U28A, G30U, U31G
DNA 1: CAATCTGAATTCCGGTCTCCC
DNA 2: TGGTGGCTACGACGGGATT
B11: ACAUUCU (DNA:RNA)
RNA: B6 RNA with G26C, G30C
DNA 1: CAATCTGAATTCCGGTCTCCC
DNA 2: TGGTGGCTACGACGGGATT
B12: CUUGCAA (DNA:RNA)
RNA: B1 RNA with C27U, C28G
DNA 1: CAATCTGAATTCCGGTCTCCC
DNA 2: TGGTGGCTACGACGGGATT
B13: GUAUAUA (DNA:RNA)
RNA: B6 RNA with A25G, G26U, U29A, G30U, U31A
DNA 1: CAATCTGAATTCCGGTCTCCC
DNA 2: TGGTGGCTACGACGGGATT
B14: GUAUUAG (DNA:RNA)
RNA: B6 RNA with A25G, G26U, G30A, U31G
DNA 1: CAATCTGAATTCCGGTCTCCC
DNA 2: TGGTGGCTACGACGGGATT
B15: UAACAAU (DNA:RNA)
RNA: B6 RNA with A25U, G26A, U28C, U29A, G30A
DNA 1: CAATCTGAATTCCGGTCTCCC
DNA 2: TGGTGGCTACGACGGGATT
B16: UGAUCUC (DNA:RNA)
RNA: B6 RNA with A25U, U29C, G30U, U31C
DNA 1: CAATCTGAATTCCGGTCTCCC
DNA 2: TGGTGGCTACGACGGGATT
B17: UUCUAGC (DNA:RNA)
RNA: B6 RNA with A25U, G26U, A27C, U29A, U31C
DNA 1: CAATCTGAATTCCGGTCTCCC
DNA 2: TGGTGGCTACGACGGGATT
B18: CGUGUCU (DNA:RNA)
RNA: B6 RNA with A25C, A27U, U28G, G30C
DNA 1: CAATCTGAATTCCGGTCTCCC
DNA 2: TGGTGGCTACGACGGGATT
B19: CCCCUUA (DNA:RNA)
RNA: B1 RNA with U26C, C29U, A30U
DNA 1: CAATCTGAATTCCGGTCTCCC
DNA 2: TGGTGGCTACGACGGGATT
B20: AGGCCCG (DNA:RNA)
RNA: B6 RNA with A27G, U28C, U29C, G30C, U31G
DNA 1: CAATCTGAATTCCGGTCTCCC
DNA 2: TGGTGGCTACGACGGGATT
B21: GAUGCCU (DNA:RNA)
RNA: B6 RNA with A25G, G26A, A27U, U28G, U29C, G30C
DNA 1: CAATCTGAATTCCGGTCTCCC
DNA 2: TGGTGGCTACGACGGGATT
B22: UGGACGA (DNA:RNA)
RNA: B6 RNA with A25U, A27G, U28A, U29C, U31A
DNA 1: CAATCTGAATTCCGGTCTCCC
DNA 2: TGGTGGCTACGACGGGATT
B23: AAUCUUA (DNA:RNA)
RNA: B6 RNA with G26A, A27U, U28C, G30U, U31A
DNA 1: CAATCTGAATTCCGGTCTCCC
DNA 2: TGGTGGCTACGACGGGATT
B24: AGAGAUA (DNA:RNA)
RNA: B6 RNA with U28G, U29A, G30U, U31A
DNA 1: CAATCTGAATTCCGGTCTCCC
DNA 2: TGGTGGCTACGACGGGATT
B25: ACAUUAU (DNA:RNA)
RNA: B6 RNA with G26C, G30A
DNA 1: CAATCTGAATTCCGGTCTCCC
DNA 2: TGGTGGCTACGACGGGATT
B26: UAAGGUU (DNA:RNA)
RNA: B6 RNA with A25U, G26A, U28G, U29G, G30U
DNA 1: CAATCTGAATTCCGGTCTCCC
DNA 2: TGGTGGCTACGACGGGATT
B27: AUCGGCG (DNA:RNA)
RNA: B1 RNA with C25A, C28G, C29G, A30C, A31G
DNA 1: CAATCTGAATTCCGGTCTCCC
DNA 2: TGGTGGCTACGACGGGATT
B28: UUGCUAU (DNA:RNA)
RNA: B1 RNA with C25U, C27G, C29U, A31U
DNA 1: CAATCTGAATTCCGGTCTCCC
DNA 2: TGGTGGCTACGACGGGATT
B29: GGAGUCA (DNA:RNA)
RNA: B6 RNA with A25G, U28G, G30C, U31A
DNA 1: CAATCTGAATTCCGGTCTCCC
DNA 2: TGGTGGCTACGACGGGATT
B30: UGCCUCC (DNA:RNA)
RNA: B6 RNA with A25U, A27C, U28C, G30C, U31C
DNA 1: CAATCTGAATTCCGGTCTCCC
DNA 2: TGGTGGCTACGACGGGATT
B31: GGAAACG (DNA:RNA)
RNA: B6 RNA with A25G, U28A, U29A, G30C, U31G
DNA 1: CAATCTGAATTCCGGTCTCCC
DNA 2: TGGTGGCTACGACGGGATT

What follows are binders tested against T1, RBFOX1 RRM RbFoxmut (Fox-RRM*) (assay: EMSA; HiTS-Eq, 1 nM pool, 10 min; buffer printed only for the single-RNA assays: 10 mM Tris pH 7.5, 150 mM NaCl, 3.4 mM EDTA, 0.001% NP-40, 30 C). Conditions: tags: His6 N-terminal (pET28a); label: 5' 32P.
Method in brief: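 Relative association constants, normalised to the cognate motif, were derived by comparing read counts of each RNA species with those of the control reaction. The RNA sequenced was the free fraction, separated by 8% native PAGE after a 10 min equilibration in 50 µL of 1 nM 5′-radiolabelled RNA (7 randomized nucleotides) with increasing concentrations of purified wild-type or mutant RbFox RRM.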
In the case of B1, the binding signal is reported as 0.0806 KA relative to UGCAUGU.
For B2, the binding signal was 0.0664 KA relative to UGCAUGU.
B3 was tested, and the binding signal was 0.0973 KA relative to UGCAUGU.
For B4, the binding signal was 0.0751 KA relative to UGCAUGU.
In the case of B5, the binding signal is reported as 0.077 KA relative to UGCAUGU.
In the case of B6, the binding signal is reported as 0.222 KA relative to UGCAUGU.
With B7 the binding signal was 0.1 KA relative to UGCAUGU.
In the case of B8, the binding signal is reported as 0.112 KA relative to UGCAUGU.
With B9 the binding signal was 0.0971 KA relative to UGCAUGU.
In the case of B10, the binding signal is reported as 0.454 KA relative to UGCAUGU.
B11 was tested, and the binding signal was 0.0626 KA relative to UGCAUGU.
For B12, the binding signal was 0.0832 KA relative to UGCAUGU.
For B13, the binding signal was 0.165 KA relative to UGCAUGU.
For B14, the binding signal was 0.142 KA relative to UGCAUGU.
B15 was tested, and the binding signal was 0.0335 KA relative to UGCAUGU.
With B16 the binding signal was 0.0775 KA relative to UGCAUGU.
With B17 the binding signal was 0.103 KA relative to UGCAUGU.
For B18, the binding signal was 0.119 KA relative to UGCAUGU.
For B19, the binding signal was 0.0931 KA relative to UGCAUGU.
For B20, the binding signal was 0.115 KA relative to UGCAUGU.
With B21 the binding signal was 0.0844 KA relative to UGCAUGU.
In the case of B22, the binding signal is reported as 0.131 KA relative to UGCAUGU.
B23 was tested, and the binding signal was 0.0831 KA relative to UGCAUGU.
In the case of B24, the binding signal is reported as 0.15 KA relative to UGCAUGU.
B25 was tested, and the binding signal was 0.127 KA relative to UGCAUGU.
With B26 the binding signal was 0.0796 KA relative to UGCAUGU.
For B27, the binding signal was 0.169 KA relative to UGCAUGU.
In the case of B28, the binding signal is reported as 0.116 KA relative to UGCAUGU.
B29 was tested, and the binding signal was 0.0995 KA relative to UGCAUGU.
In the case of B30, the binding signal is reported as 0.155 KA relative to UGCAUGU.
For B31, the binding signal was 0.0703 KA relative to UGCAUGU.

From publication PMC9911399, “Two distinct binding modes provide the RNA-binding protein RbFox with extraordinary sequence specificity”
